# Reference: the supplement of paper PMC8728848
# The other results are listed elsewhere or left out.
# Legend:
# Assay in all cases: glycan array binding signal (z-score within array); higher = stronger binding
# Conditions in all cases: glycan notation: IUPAC condensed, linker removed
# [1] = target: Gal(b1-4)GlcNAc(b1-3)Gal(b1-4)GlcNAc(b1-3)Gal(b1-4)GlcNAc(b1-2)Man(a1-3)[Gal(b1-4)GlcNAc(b1-3)Gal(b1-4)GlcNAc(b1-3)Gal(b1-4)GlcNAc(b1-2)Man(a1-6)]Man(b1-4)GlcNAc(b1-4)GlcNAc
# Outline: (§1)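 Negative Z-scores can be read as non-binding. The Z-score is calculated within each array and then averaged across arrays of one protein sequence at different concentrations or buffers and across linkers. Arrays, 3228 in all, were curated from the Consortium for Functional Glycomics database and kept only where the protein sequence was available.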
# [2] = target: Gal(b1-4)GlcNAc(b1-3)Gal(b1-4)GlcNAc(b1-3)Gal(b1-4)GlcNAc(b1-2)Man(a1-3)[Gal(b1-4)GlcNAc(b1-3)Gal(b1-4)GlcNAc(b1-3)Gal(b1-4)GlcNAc(b1-2)Man(a1-6)]Man(b1-4)GlcNAc(b1-4)[Fuc(a1-6)]GlcNAc
# Outline: as §1
# [3] = target: Gal(b1-4)GlcNAc(b1-3)Gal(b1-4)GlcNAc(b1-3)Gal(b1-4)GlcNAc(b1-2)[Gal(b1-4)GlcNAc(b1-3)Gal(b1-4)GlcNAc(b1-3)Gal(b1-4)GlcNAc(b1-6)]Man(a1-6)[Gal(b1-4)GlcNAc(b1-3)Gal(b1-4)GlcNAc(b1-3)Gal(b1-4)GlcNAc(b1-2)Man(a1-3)]Man(b1-4)GlcNAc(b1-4)[Fuc(a1-6)]GlcNAc
# Outline: as §1
# [4] = target: Gal(b1-4)GlcNAc(b1-3)Gal(b1-4)GlcNAc(b1-3)Gal(b1-4)GlcNAc(b1-3)Gal(b1-4)GlcNAc(b1-2)Man(a1-3)[Gal(b1-4)GlcNAc(b1-3)Gal(b1-4)GlcNAc(b1-3)Gal(b1-4)GlcNAc(b1-3)Gal(b1-4)GlcNAc(b1-2)Man(a1-6)]Man(b1-4)GlcNAc(b1-4)GlcNAc
# Outline: as §1
# [5] = target: Gal(b1-4)GlcNAc(b1-3)Gal(b1-4)GlcNAc(b1-3)Gal(b1-4)GlcNAc(b1-3)Gal(b1-4)GlcNAc(b1-2)Man(a1-3)[Gal(b1-4)GlcNAc(b1-3)Gal(b1-4)GlcNAc(b1-3)Gal(b1-4)GlcNAc(b1-3)Gal(b1-4)GlcNAc(b1-2)Man(a1-6)]Man(b1-4)GlcNAc(b1-4)[Fuc(a1-6)]GlcNAc
# Outline: as §1
# [6] = target: Gal(b1-4)GlcNAc(b1-3)Gal(b1-4)GlcNAc(b1-3)Gal(b1-4)GlcNAc(b1-3)Gal(b1-4)GlcNAc(b1-2)[Gal(b1-4)GlcNAc(b1-3)Gal(b1-4)GlcNAc(b1-3)Gal(b1-4)GlcNAc(b1-3)Gal(b1-4)GlcNAc(b1-6)]Man(a1-6)[Gal(b1-4)GlcNAc(b1-3)Gal(b1-4)GlcNAc(b1-3)Gal(b1-4)GlcNAc(b1-3)Gal(b1-4)GlcNAc(b1-2)Man(a1-3)]Man(b1-4)GlcNAc(b1-4)[Fuc(a1-6)]GlcNAc
# Outline: as §1
# [7] = target: Gal(b1-4)GlcNAc(b1-3)Gal(b1-4)GlcNAc(b1-3)Gal(b1-4)GlcNAc(b1-3)Gal(b1-4)GlcNAc(b1-3)Gal(b1-4)GlcNAc(b1-2)Man(a1-3)[Gal(b1-4)GlcNAc(b1-3)Gal(b1-4)GlcNAc(b1-3)Gal(b1-4)GlcNAc(b1-3)Gal(b1-4)GlcNAc(b1-3)Gal(b1-4)GlcNAc(b1-2)Man(a1-6)]Man(b1-4)GlcNAc(b1-4)GlcNAc
# Outline: as §1
# [8] = target: Gal(b1-4)GlcNAc(b1-3)Gal(b1-4)GlcNAc(b1-3)Gal(b1-4)GlcNAc(b1-3)Gal(b1-4)GlcNAc(b1-3)Gal(b1-4)GlcNAc(b1-2)Man(a1-3)[Gal(b1-4)GlcNAc(b1-3)Gal(b1-4)GlcNAc(b1-3)Gal(b1-4)GlcNAc(b1-3)Gal(b1-4)GlcNAc(b1-3)Gal(b1-4)GlcNAc(b1-2)Man(a1-6)]Man(b1-4)GlcNAc(b1-4)[Fuc(a1-6)]GlcNAc
# Outline: as §1
# [9] = target: Gal(b1-4)GlcNAc(b1-3)Gal(b1-4)GlcNAc(b1-3)Gal(b1-4)GlcNAc(b1-3)Gal(b1-4)GlcNAc(b1-3)Gal(b1-4)GlcNAc(b1-2)[Gal(b1-4)GlcNAc(b1-3)Gal(b1-4)GlcNAc(b1-3)Gal(b1-4)GlcNAc(b1-3)Gal(b1-4)GlcNAc(b1-3)Gal(b1-4)GlcNAc(b1-6)]Man(a1-6)[Gal(b1-4)GlcNAc(b1-3)Gal(b1-4)GlcNAc(b1-3)Gal(b1-4)GlcNAc(b1-3)Gal(b1-4)GlcNAc(b1-3)Gal(b1-4)GlcNAc(b1-2)Man(a1-3)]Man(b1-4)GlcNAc(b1-4)[Fuc(a1-6)]GlcNAc
# Outline: as §1
# [10] = target: Gal(b1-4)GlcNAc(b1-3)Gal(b1-4)GlcNAc(b1-3)Gal(b1-4)GlcNAc(b1-3)Gal(b1-4)GlcNAc(b1-3)Gal(b1-4)GlcNAc(b1-3)Gal(b1-4)GlcNAc(b1-2)Man(a1-3)[Gal(b1-4)GlcNAc(b1-3)Gal(b1-4)GlcNAc(b1-3)Gal(b1-4)GlcNAc(b1-3)Gal(b1-4)GlcNAc(b1-3)Gal(b1-4)GlcNAc(b1-3)Gal(b1-4)GlcNAc(b1-2)Man(a1-6)]Man(b1-4)GlcNAc(b1-4)GlcNAc
# Outline: as §1
# [11] = target: Gal(b1-4)GlcNAc(b1-3)Gal(b1-4)GlcNAc(b1-3)GalNAc
# Outline: as §1
# [12] = target: Gal(b1-4)GlcNAc(b1-3)Gal(b1-4)GlcNAc(b1-3)[Gal(b1-4)GlcNAc(b1-3)Gal(b1-4)GlcNAc(b1-6)]GalNAc
# Outline: as §1
# [13] = target: Gal(b1-4)GlcNAc(b1-3)Gal(b1-4)GlcNAc(b1-6)[Gal(b1-3)]GalNAc
# Outline: as §1
# [14] = target: Gal(b1-4)GlcNAc(b1-3)Gal(b1-4)[Fuc(a1-3)]GlcNAc(b1-3)Gal(b1-4)[Fuc(a1-3)]GlcNAc
# Outline: as §1
# [15] = target: Gal(b1-4)GlcNAc(b1-3)GalNAc
# Outline: as §1
# [16] = target: Gal(b1-4)GlcNAc(b1-3)[Fuc(a1-3)GlcNAc(b1-6)]Gal(b1-4)Glc
# Outline: as §1
# [17] = target: Gal(b1-4)GlcNAc(b1-3)[Gal(b1-4)GlcNAc(b1-6)]Gal(b1-4)GlcNAc
# Outline: as §1
# [18] = target: Gal(b1-4)GlcNAc(b1-3)[GlcNAc(b1-6)]Gal(b1-4)GlcNAc
# Outline: as §1
# [19] = target: Gal(b1-4)GlcNAc(b1-6)Gal(b1-4)GlcNAc
# Outline: as §1
binder,measurement,setting,value
Cohesin-marm-DC-ASGPR (protein) LDITSHHHHHHDDLDAVRIKVDTVNAKPGDTVRIPVRFSGIPSKGIANCDFVYSYDPNVLEIIEIEPGDIIVDPNPDKSFDTAVYPDRKIIVFLFAEDSGTGAYAITKDGVFATIVAKVKEGAPNGLSVIKFVEVGGFANNDLVEQKTQFFDGGVNVGDTTEPATPTTPVTTPTTTDDLDAASSKFQRDLVTLRTDFSNFTSNTLAEIQALTSQGSSLQETIASLKAEVEGHKQELQAGASELQEHNKQKAHLGRCPHTCVCPSSFVCVPVHSEILLRVQQLVQDLNKLSCQVAILKNNATTERTCCPINWVEHQGSCYWFSRSGKTWPEAERYCQLENTHLVVINSREEQNFVQAHLGSAYTWMGLSDPEGVWKWVDGTDYSSGFQNWKPGQPDDWQGHGLGGGEDCAHFHPDGRWNDDVCQRSYHWVCEAGLTQASQDSHAS,glycan array binding signal (z-score),[1],-0.177
same,glycan array binding signal (z-score),[2],-0.117
same,glycan array binding signal (z-score),[3],-0.297
same,glycan array binding signal (z-score),[4],-0.046
same,glycan array binding signal (z-score),[5],-0.129
same,glycan array binding signal (z-score),[6],-0.272
same,glycan array binding signal (z-score),[7],-0.093
same,glycan array binding signal (z-score),[8],-0.27
same,glycan array binding signal (z-score),[9],-0.207
same,glycan array binding signal (z-score),[10],-0.295
same,glycan array binding signal (z-score),[11],-0.287
same,glycan array binding signal (z-score),[12],-0.242
same,glycan array binding signal (z-score),[13],-0.258
same,glycan array binding signal (z-score),[14],-0.244
same,glycan array binding signal (z-score),[15],-0.275
same,glycan array binding signal (z-score),[16],-0.308
same,glycan array binding signal (z-score),[17],-0.287
same,glycan array binding signal (z-score),[18],-0.287
same,glycan array binding signal (z-score),[19],-0.29
